T1: HCoV-HKU1 Spike protein, full length, C-terminally fused with EGFP (HCoV-HKU1, UniProt Q5MQD0 13-1356)
T1 construct: whole, on cells
T1 sequence: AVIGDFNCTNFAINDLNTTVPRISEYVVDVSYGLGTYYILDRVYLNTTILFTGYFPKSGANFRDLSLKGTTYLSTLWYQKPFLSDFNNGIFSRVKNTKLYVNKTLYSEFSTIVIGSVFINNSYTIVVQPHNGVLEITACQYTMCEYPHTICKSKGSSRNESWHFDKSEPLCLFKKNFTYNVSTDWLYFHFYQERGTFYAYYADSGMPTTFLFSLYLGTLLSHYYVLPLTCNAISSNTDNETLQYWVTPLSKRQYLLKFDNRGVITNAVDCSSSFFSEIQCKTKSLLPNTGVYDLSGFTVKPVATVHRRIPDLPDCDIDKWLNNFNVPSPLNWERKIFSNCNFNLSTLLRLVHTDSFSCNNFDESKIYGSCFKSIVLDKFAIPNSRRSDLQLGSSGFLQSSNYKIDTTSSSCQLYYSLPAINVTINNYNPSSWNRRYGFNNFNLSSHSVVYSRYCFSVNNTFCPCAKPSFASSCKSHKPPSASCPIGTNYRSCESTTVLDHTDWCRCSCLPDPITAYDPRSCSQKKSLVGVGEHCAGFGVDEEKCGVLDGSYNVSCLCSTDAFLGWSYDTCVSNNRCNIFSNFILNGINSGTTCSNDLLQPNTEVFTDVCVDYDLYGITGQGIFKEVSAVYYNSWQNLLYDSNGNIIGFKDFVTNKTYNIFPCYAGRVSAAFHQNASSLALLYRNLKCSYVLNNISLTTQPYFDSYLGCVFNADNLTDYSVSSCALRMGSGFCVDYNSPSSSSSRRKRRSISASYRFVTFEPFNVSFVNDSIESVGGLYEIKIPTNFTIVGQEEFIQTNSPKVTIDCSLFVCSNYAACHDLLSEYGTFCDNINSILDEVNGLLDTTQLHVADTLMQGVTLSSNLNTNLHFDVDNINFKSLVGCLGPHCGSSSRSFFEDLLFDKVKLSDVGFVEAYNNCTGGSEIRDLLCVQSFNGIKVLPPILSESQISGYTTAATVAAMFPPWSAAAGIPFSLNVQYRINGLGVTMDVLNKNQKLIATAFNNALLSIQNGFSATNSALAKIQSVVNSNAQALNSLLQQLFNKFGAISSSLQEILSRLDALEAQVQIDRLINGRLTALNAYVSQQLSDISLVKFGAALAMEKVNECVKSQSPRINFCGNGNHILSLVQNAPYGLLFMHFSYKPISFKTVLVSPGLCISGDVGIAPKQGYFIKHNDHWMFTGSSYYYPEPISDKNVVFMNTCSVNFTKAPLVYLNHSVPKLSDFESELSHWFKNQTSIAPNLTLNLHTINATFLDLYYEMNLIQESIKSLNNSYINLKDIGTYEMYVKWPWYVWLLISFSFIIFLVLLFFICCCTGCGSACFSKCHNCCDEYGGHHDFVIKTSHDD

T2: HCoV-OC43 Spike protein, full length, C-terminally fused with EGFP (HCoV-OC43, UniProt P36334 14-1353)
T2 construct: whole, on cells
T2 sequence: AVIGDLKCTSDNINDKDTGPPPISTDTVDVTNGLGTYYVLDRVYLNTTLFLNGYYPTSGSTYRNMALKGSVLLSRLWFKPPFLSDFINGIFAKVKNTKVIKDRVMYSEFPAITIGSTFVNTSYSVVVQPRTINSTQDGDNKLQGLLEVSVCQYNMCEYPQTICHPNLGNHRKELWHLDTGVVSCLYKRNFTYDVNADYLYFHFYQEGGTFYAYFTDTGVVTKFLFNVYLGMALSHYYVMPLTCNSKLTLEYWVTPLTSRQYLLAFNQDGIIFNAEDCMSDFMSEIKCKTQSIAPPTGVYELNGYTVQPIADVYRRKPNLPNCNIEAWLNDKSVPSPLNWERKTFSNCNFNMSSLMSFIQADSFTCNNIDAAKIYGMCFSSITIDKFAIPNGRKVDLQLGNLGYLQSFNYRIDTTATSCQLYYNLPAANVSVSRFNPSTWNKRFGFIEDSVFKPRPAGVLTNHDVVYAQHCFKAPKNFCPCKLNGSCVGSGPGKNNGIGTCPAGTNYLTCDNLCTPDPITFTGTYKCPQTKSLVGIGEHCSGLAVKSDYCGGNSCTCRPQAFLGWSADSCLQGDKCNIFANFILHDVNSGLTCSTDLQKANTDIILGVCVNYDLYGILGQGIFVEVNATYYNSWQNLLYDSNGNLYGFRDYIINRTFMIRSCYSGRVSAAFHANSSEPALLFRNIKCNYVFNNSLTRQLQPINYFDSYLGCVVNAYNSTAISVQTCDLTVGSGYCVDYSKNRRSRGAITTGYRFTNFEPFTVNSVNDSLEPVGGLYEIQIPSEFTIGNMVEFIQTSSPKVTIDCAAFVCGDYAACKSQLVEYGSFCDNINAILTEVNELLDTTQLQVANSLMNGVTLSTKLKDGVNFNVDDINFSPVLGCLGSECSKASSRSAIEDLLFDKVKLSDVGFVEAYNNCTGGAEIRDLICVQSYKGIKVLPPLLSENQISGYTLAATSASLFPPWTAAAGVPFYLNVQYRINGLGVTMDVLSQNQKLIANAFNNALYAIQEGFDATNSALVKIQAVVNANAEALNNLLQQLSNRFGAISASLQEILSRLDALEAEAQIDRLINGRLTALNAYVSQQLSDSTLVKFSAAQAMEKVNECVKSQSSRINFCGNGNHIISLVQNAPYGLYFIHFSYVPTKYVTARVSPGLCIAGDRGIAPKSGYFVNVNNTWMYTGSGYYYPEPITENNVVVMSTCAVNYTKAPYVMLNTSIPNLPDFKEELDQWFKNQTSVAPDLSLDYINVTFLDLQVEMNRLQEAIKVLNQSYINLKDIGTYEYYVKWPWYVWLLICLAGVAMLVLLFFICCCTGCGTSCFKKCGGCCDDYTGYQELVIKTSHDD


Tests used:
[1] = molecular target: T1, HCoV-HKU1 Spike protein, full length, …; test: flow cytometry, HEK293 cells expressing full-length Spike-EGFP, anti-hIg-PE
[2] = molecular target: T2, HCoV-OC43 Spike protein, full length, …; test: as above

Binder	binding result [1]	binding result [2]
COV2-114-1-Fc (Fc fusion) QLQLVESGGDLVQPGESLRLSCVASGLSLEHYAIGWFRQAPGKEREGVSCISDSGATRSYADSVRGRFTISRENAKNAVYLEMNSLKPEDTAVYYCSATPGAFRTCAFRDFSHLANWGQGTQVTVSS[human IgG1 Fc with changes not listed]	no binding	no binding
COV2-116-9-Fc (Fc fusion) QLQLVESGGDLVQPGESLRLSCVASGFTLDYYAIGWFRQAPGKEREGVSCISSSGTSTSYADSVRGRFTISRENAKNAVYLEMNSLKPEDTAVYYCAALQGSYYYTSLHQTEYDYWGQGTQVTVSS[human IgG1 Fc with changes not listed]	no binding	no binding
COV2-171-11-Fc (Fc fusion) QLQLVESGGDLVQPGESLRLSCVASGFTLDYYAIGWFRQAPGKEREGVSCISPSGTSTSYADSVRGRFTISRENAKNAVYLEMNSLKPEDTAVYYCAAANPSYYYCSGYPHEYDDWGQGTQVTVSS[human IgG1 Fc with changes not listed]	no binding	no binding
COV2-187-2-Fc (Fc fusion) QLQLVESGGDLVQPGESLRLSCVASGLSLEHYAIGWFRQAPGKEREGVSCIDSSGGSTSYADSVRGRFTISRENAKNAVYLEMNSLKPEDTAVYYCAALQGSYYYTSLHQTEYDYWGQGTQVTVSS[human IgG1 Fc with changes not listed]	no binding	no binding
COV2-120-17-Fc (Fc fusion) QLQLVESGGDLVQPGESLRLSCVASGHTGSTYIIGWFRQAPGKEREGVSCISRSGILRSYADSVRGRFTISRENAKNAVYLEMNSLKPEDTAVYYCAARDSLTGVIGNTPGEYDYWGQGTQVTVSS[human IgG1 Fc with changes not listed]	no binding	no binding
COV2-153-18-Fc (Fc fusion) QLQLVESGGDLVQPGESLRLSCVASGRTVSSYVIGWFRQAPGKEREGVSCISRSGIITSYADSVRGRFTISRENAKNAVYLEMNSLKPEDTAVYYCAAAQTQVLPTEDRSYDYWGQGTQVTVSS[human IgG1 Fc with changes not listed]	no binding	no binding
COV2-39-19-Fc (Fc fusion) QLQLVESGGDLVQPGESLRLSCVASGRTFTRYPIGWFRQAPGKEREGVSCISGSGIITSYADSVRGRFTISRENAKNAVYLEMNSLKPEDTAVYYCAVDNAPTSSLPLTPGEYDYWGQGTQVTVSS[human IgG1 Fc with changes not listed]	no binding	no binding
COV2-124-20-Fc (Fc fusion) QLQLVESGGDLVQPGESLRLSCVASGRTFSSYAIGWFRQAPGKEREGVSCISSGGITSYADSVRGRFTISRENAKNAVYLEMNSLKPEDTAVYYCAANRGRFTGWRSLTDYTYWGQGTQVTVSS[human IgG1 Fc with changes not listed]	no binding	no binding
COV2-18-21-Fc (Fc fusion) QLQLVESGGDLVQPGESLRLSCVASGRTFSTYAIGWFRQAPGKEREGVSCISPSRIITSYADSVRGRFTISRENAKNAVYLEMNSLKPEDTAVYYCAADSSYGGRLGRRIDDYEYWGQGTQVTVSS[human IgG1 Fc with changes not listed]	no binding	no binding
COV2-360-3-Fc (Fc fusion) QLQLVESGGDLVQPGESLRLSCVASGFTLDSYAIGWFRQAPGKEREGVSCITKHGGTTSYADSVRGRFTISRENAKNAVYLEMNSLKPEDTAVYYCAADHRALRFGCAVVPGPYDYWGQGTQVTVSS[human IgG1 Fc with changes not listed]	no binding	no binding
COV2-151-23-Fc (Fc fusion) QLQLVESGGDLVQPGESLRLSCVASASGRTSSTIGWFRQAPGKEREGVSCITWSGGSTSYADSVRGRFTISRENAKNAVYLEMNSLKPEDTAVYYCAAGLSPLMLTASRRYEYWGQGTQVTVSS[human IgG1 Fc with changes not listed]	no binding	no binding
COV2-214-24-Fc (Fc fusion) QLQLVESGGDLVQPGESLRLSCVASGRTVSMYAIGWFRQAPGKEREGVSCISRSGRSTSYADSVRGRFTISRENAKNAVYLEMNSLKPEDTAVYYCAARDGGLHYALYVEASHYNYWGQGTQVTVSS[human IgG1 Fc with changes not listed]	no binding	no binding
COV2-331-25-Fc (Fc fusion) QLQLVESGGDLVQPGESLRLSCVASGFTFSSYAIGWFRQAPGKEREGVSCLDVTGRSTSYADSVRGRFTISRENAKNAVYLEMNSLKPEDTAVYYCAAVYTPFRFAFKTDPDRQDHWGQGTQVTVSS[human IgG1 Fc with changes not listed]	no binding	no binding
COV2-32-26-Fc (Fc fusion) QLQLVESGGDLVQPGESLRLSCVASGRTFGTYRIGWFRQAPGKEREGVSCIFWSGGGASYADSVRGRFTISRENAKNAVYLEMNSLKPEDTAVYYCAARAPTTQEYDYWGQGTQVTVSS[human IgG1 Fc with changes not listed]	no binding	no binding
